# Test results published in PMC4336329 (PLoS ONE, 2015).
# Hit rate of the full screen: of about 310,000 compounds, about 14,000 (4.5%) showed an effect of 50% or more. The effect is printed as a negative number. Some of the results follow.
# Molecular target: human ether-à-go-go-related gene (hERG) potassium channel (human, UniProt Q12809)
# Assay: primary screen, population patch clamp on CHO cells stably expressing hERG
# 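Note: peak tail current of the secondary pulse compared with the same well before compound.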
# Sequence of human ether-à-go-go-related gene (hERG) potassium channel (Q12809 whole entry, looked up): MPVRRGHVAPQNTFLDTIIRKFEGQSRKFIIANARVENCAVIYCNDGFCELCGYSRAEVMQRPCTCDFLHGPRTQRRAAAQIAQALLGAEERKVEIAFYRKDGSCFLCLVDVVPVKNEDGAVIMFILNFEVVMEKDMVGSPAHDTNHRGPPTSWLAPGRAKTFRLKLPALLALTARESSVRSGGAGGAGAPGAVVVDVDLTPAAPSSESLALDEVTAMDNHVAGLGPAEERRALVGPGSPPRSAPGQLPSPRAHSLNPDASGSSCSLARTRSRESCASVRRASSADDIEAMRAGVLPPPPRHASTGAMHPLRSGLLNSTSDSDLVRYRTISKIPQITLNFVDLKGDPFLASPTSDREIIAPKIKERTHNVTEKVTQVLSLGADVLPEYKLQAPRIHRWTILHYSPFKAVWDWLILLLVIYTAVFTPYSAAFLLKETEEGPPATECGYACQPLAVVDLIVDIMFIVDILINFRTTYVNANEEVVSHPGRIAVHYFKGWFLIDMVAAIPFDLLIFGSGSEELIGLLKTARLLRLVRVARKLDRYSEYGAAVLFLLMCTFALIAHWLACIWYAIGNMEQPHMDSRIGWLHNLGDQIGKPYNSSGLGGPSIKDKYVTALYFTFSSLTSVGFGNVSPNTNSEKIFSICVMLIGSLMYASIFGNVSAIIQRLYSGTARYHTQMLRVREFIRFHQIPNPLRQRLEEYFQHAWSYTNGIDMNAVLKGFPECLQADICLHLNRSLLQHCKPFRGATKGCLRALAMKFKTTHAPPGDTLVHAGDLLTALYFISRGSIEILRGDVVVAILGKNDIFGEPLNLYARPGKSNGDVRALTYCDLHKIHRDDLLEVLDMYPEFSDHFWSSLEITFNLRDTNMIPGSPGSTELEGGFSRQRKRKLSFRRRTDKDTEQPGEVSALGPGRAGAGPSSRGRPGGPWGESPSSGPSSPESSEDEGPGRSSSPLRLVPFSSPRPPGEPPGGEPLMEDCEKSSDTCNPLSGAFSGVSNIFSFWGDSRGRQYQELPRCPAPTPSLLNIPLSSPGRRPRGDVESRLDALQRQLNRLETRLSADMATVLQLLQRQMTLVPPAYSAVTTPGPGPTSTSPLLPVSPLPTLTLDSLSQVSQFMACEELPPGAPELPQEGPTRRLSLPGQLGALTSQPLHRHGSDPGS
row,Structure (SMILES),"hERG current change (%, negative = inhibition) at 10uM [%]"
1,CC1CCCCN1C(=O)COC(=O)/C=C/c1ccc2ccccc2n1 (stereo not drawn),11
2,COc1ccc(/C=N/NC(=O)c2cnccn2)c(OC)c1OC,6.4
3,CCOCCCNC(=O)C(c1ccc(Cl)cc1)N1CCC2(CC1)OCCO2 (stereo not drawn),8.73
4,C/C(=N\OCC(=O)N/N=C/c1ccccc1O)c1cccs1,-8.52
5,N#CCc1ccc(C(=O)c2ccccc2F)s1,3.64
6,O=C(Cn1cnc2ccccc21)Nc1ccccc1-c1ccccc1,9.15
7,COc1ccc2nc(-c3ccccc3)nc(C3CCCCC3)c2c1,13.3
8,O=C(O)CSCC(=O)Nc1cc(C(F)(F)F)ccc1Cl,1.71
9,O=C(NCCCO)c1cc2c([nH]c3ccccc32)c(-c2ccc(F)cc2)n1,-47.2
10,Cc1oc(-c2cccs2)nc1CN1CC[C@@](O)(c2ccccc2)[C@H]2CCCC[C@@H]21,11.8
11,O=C(c1ccc2c(c1)OCO2)N1CCc2ccccc21,-2.34
12,CCCn1c(C)cc(C(=O)CN2C(=O)c3ccccc3C2=O)c1C,-14.8
13,O=C(COc1ccc(Cl)cc1)Nc1nnc(-c2ccco2)o1,0.669
14,COc1cc(NS(=O)(=O)c2ccc(C)cc2)ccc1-n1cnnn1,-12.4
15,O=C(O)c1ccc(Cl)c(NCc2cccs2)c1,22.5
16,O=C1NCCCN1Cc1ccc(F)cc1,-8.4
17,O=C(c1ccccn1)N1CCCC(N2CCN(c3ccc(F)cc3)CC2)C1 (stereo not drawn),-37.2
18,CC(=O)NC(=S)Nc1cccc(S(=O)(=O)NC2=NCCC2)c1,-4.85
19,N#Cc1cc2c(nc1SCc1ccccc1)CCCC2,30
20,CC1(C)CC(=O)C2=C(C1)N(c1ncn[nH]1)C(N)=C(C#N)C2c1ccccc1 (stereo not drawn),1.19
21,Cc1ccc(C(=O)N/C(=C\c2ccc(Cl)cc2)C(=O)NCC2CCCO2)cc1 (stereo not drawn),-49
22,O=C(N/N=C/c1ccc([N+](=O)[O-])s1)c1ccccc1,11.4
23,NC(=O)c1ccc(NC(=O)COc2ccc([N+](=O)[O-])cc2Cl)cc1,-13.9

row,Structure (SMILES),"hERG current change (%, negative = inhibition) at 10uM [%]"
1,O=C1c2ccccc2NC(c2ccccc2Cl)N1N=C1CCCCCC1 (stereo not drawn),-12.3
2,Cc1cc(C)nc(SCC(=O)N/N=C/c2cccn2-c2ccc(O)cc2)n1,2.63
3,O=C(Nc1cccc([N+](=O)[O-])c1)N1CCCc2ccccc21,-13.7
4,COc1ccc(Cl)cc1Nc1nc(C)nc2c1oc1ccccc12.Cl,20.5
5,CCCC1c2ccc(C)n2CCN1C(=O)Nc1ccccc1Cl (stereo not drawn),-3.91
6,O=C(/C=C/c1ccco1)NC(=S)N1CCCCC1,-4.86
7,CN(C)c1cccc(NC(=O)Cc2ccc(F)cc2)c1,16.8
8,COc1ccc(-c2cc(C(F)(F)F)n3nc(C(=O)NCCCN4CCOCC4)cc3n2)cc1,-18.5
9,Cc1ccc(NC2=CC(=O)CC(C)(C)C2)cc1C,2.51
10,O=C(NCc1cccnc1)Nc1cccc([N+](=O)[O-])c1,-1.83
11,Cc1cccc(NC(=O)CNc2cc(C)ccc2C)c1,-20.4
12,CCC(C)NCCCCOc1cc(C)cc(C(C)C)c1 (stereo not drawn),-54.9
13,O=C(Nc1cccc(Cl)c1)c1ccc(NCCCN2CCOCC2)c([N+](=O)[O-])c1,-37.9
14,COc1cc(C(=O)NCCOc2ccccc2C)c(Br)c(OC)c1OC,-17.8
15,CCN1C(=O)[C@H]2[C@@H](c3ccc(C)cc3)N3C(=O)N(c4ccc(C(F)(F)F)cc4)C(=O)[C@@]3(CC(C)C)[C@H]2C1=O,14.6
16,CC(c1ccon1)N(C)C(=O)CCc1nnc(Cc2ccc(-c3ccccc3)cc2)o1 (stereo not drawn),-21.7
17,CC(C)(C)NC(=S)Nc1cccc(C(F)(F)F)c1,15.2
18,O=C(COC(=O)c1cnccn1)NCc1ccc(Cl)cc1,-3.54
19,C=CCOc1ccc(/C(O)=C2/C(=O)C(=O)N(CCCN3CCOCC3)C2c2ccccc2)cc1 (stereo not drawn),12.5
20,Cc1cc(C)n(CCNC(=O)C2CCC(=O)N(Cc3ccc(Cl)cc3)C2)n1 (stereo not drawn),15.2
21,CC(C)COc1ccc2[nH]c3c(c2c1)CCCC3=O,10.5
22,Cc1ccccc1N1C(=O)C2C3CCC(O3)C2C1=O (stereo not drawn),20.2
23,COC(=O)c1ccc2ccn(CC(=O)NC(C)C)c2c1,8.62

row,Structure (SMILES),"hERG current change (%, negative = inhibition) at 10uM [%]"
1,O=C1NC[C@@H](Cc2cccc3ccccc23)N(CC2(c3ccccc3)CC2)C1=O,-10
2,O=C(Nc1ccc2nc(-c3ccc4nc[nH]c4c3)[nH]c2c1)c1cccs1,17.1
3,CCCc1[nH][nH]c(=O)c1C(c1ccc(Br)cc1)C(C#N)C#N (stereo not drawn),6.7
4,COc1cc(OC)c(C(=O)NC2CC(C)(C)NC(C)(C)C2)cc1OC,12
5,FC(F)(F)c1cccc(NC(=S)Nc2ccc(Cl)cc2Cl)c1,20.7
6,Cc1oc(C(C)(C)C)cc1C(N)=O,12.7
7,Nc1nnc(SCc2cccnc2)s1,-3.41
8,O=C1CC(c2ccc(Cl)cc2)CC(O)=C1C=NCc1ccc(Cl)c(Cl)c1 (stereo not drawn),6.96
9,COc1cccc(C(=O)N2CCN(c3ccc(N4CCOCC4)nn3)CC2)c1,-14.8
10,N#Cc1nc(Cc2cccc3ccccc23)oc1NCc1ccc2c(c1)OCO2,-6.58
11,CCOc1ccc(NS(=O)(=O)c2ccc3ncsc3c2)cc1,2.42
12,CCc1c(C)c2ccc(OCC(=O)OC(C)C)c(C)c2oc1=O,-4.84
13,Cc1ccc(N/N=C2\CC(=O)c3ccccc32)cc1Cl,23.7
14,CSc1ccc(-c2nc(CSCC(=O)NCCCN3CCCC3=O)c(C)o2)cc1,-14.4
15,CC1=C(C)CC(C(=O)NC(C)CCc2ccccc2)C(C(=O)O)C1 (stereo not drawn),11
16,Cc1ccc2oc(C(=O)N3CCN(Cc4nccn4C)CC3)c(C)c2c1,-41.3
17,COCCOC(=O)c1c(C)oc2ccc(OCc3cc(C(=O)OC)oc3C)cc12,-0.544
18,O=C(COC(=O)c1cc(Br)ccc1O)NNC(=O)c1ccc([N+](=O)[O-])cc1,-6.34
19,COc1ccc(OC)c(NC2=NC3(CCCCC3)N=C(N)N2)c1,10.4
20,CNC(=O)c1cc(C(=O)c2ccc(C(F)(F)F)cc2F)c[nH]1,4.82
21,CCCCCCCCNC(=O)c1cccnc1SCC(=O)Nc1ccc(OC)cc1OC,5.99
22,O=C(O)CCCCCNS(=O)(=O)c1cccc2nsnc12,-1.24
23,O=C(NCCCN1CCN(c2ccccc2F)CC1)Nc1ccc(F)cc1,-66.3

row,Structure (SMILES),"hERG current change (%, negative = inhibition) at 10uM [%]"
1,COc1ccc(CC(=O)NCC2CCCN(Cc3cc(OC)cc(OC)c3)C2)cc1 (stereo not drawn),-21
2,Cc1nn(-c2nc3ccccc3s2)c(C)c1Oc1ccccc1O,18.3
3,COc1ccc(C2C3C(=O)N(N(C)c4ncc(C(F)(F)F)cc4Cl)C(=O)C3ON2C)cc1 (stereo not drawn),14.8
4,Cc1cccc(NCc2ccc(Br)cc2)n1,-5.75
5,COC(=O)[C@@H]1C[C@@H]2CC[C@@H](O)C[C@@H]2N1Cc1ccc(N2CCN(C)CC2)cc1,9.87
6,O=C(Nc1ccccc1-c1ccccc1)c1cnccn1,-15.3
7,COc1ccc(C2CC(C(F)(F)F)n3nc(C(=O)O)cc3N2)cc1 (stereo not drawn),22.4
8,COc1ccc(/C=C/C(=O)OCC(=O)c2c[nH]c3ccccc23)cc1,11.1
9,OCCOCCOc1ccccc1OCCOCCO,16
10,O=C1NC(c2ccccc2)=C(c2ccccc2)C1=O,16.3
11,COc1ccc(OC)c(CC(=O)N(C)C2CCCN(Cc3ccccc3F)C2)c1 (stereo not drawn),2.37
12,Cn1cc(CCNCc2cn[nH]c2-c2ccc(-c3ccccc3)cc2)cn1,-64.8
13,Cc1ccc(C(=O)O/N=C(\N)c2ccc(C(F)(F)F)cn2)cc1,12.7
14,CCOC(=O)CSCc1c(C#N)c2ccccc2n1C,-11.4
15,COc1ccc(OC)c(-c2csc(NC(=O)Cc3ccccc3OC)n2)c1,-0.305
16,COc1ccc(S(=O)(=O)N/N=C/c2ccc(OCCN3CCOCC3)c(OC)c2)cc1,1.42
17,COc1ccc(C(C(=O)NC2CCCCC2)N(Cc2ccco2)C(=O)CNC(=O)c2ccco2)cc1 (stereo not drawn),3.89
18,O=C1Nc2ccc([N+](=O)[O-])cc2OC1CCN1CCN(Cc2ccccc2)CC1 (stereo not drawn),-22.8
19,CC(C)COCC(O)CCC(=O)NNC(=S)Nc1ccccc1 (stereo not drawn),2.99
20,COc1ccc2c(c1)CCc1c(C(=O)NCc3cccnc3)noc1-2,2.22
21,CCCOP(=O)(O)c1c([N+](=O)[O-])cc(C(F)(F)F)cc1[N+](=O)[O-].Cc1ccc(N)cc1,0.849
